# Measurements published in publication PMC12040169 (PLOS Biology, 2025).
# The list shows a part of the results.
# Tested on: T1, C. trachomatis L2/434/Bu expressing GFP (CTL2-GFP)
# T1 construct: L2/434/Bu GFP intracellular growth in HeLa cells
# Design: species or system HeLa; C. trachomatis total inclusion area by high-content imaging, normalised to DMSO
# Conditions: total inclusion area; 28.5 h, 10 µM; inhibitor
# How it was run: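 Host cell viability was gauged from Hoechst-stained nuclei counts, while chlamydial growth was taken from total inclusion area and inclusion number per well. Cells were fixed and imaged by high-content microscopy once bulk GFP and resorufin fluorescence had been measured.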
row,SMILES,% of control remaining
1,COc1ccc(C(=O)Nc2nc3ccc(S(N)(=O)=O)cc3s2)cc1 [CBK291147],90.1938
2,Cc1ccc(S(=O)(=O)c2ccccc2)cc1S(=O)(=O)NCc1ccncc1 [CBK270073],98.4764
3,Cc1nnc(CN(CC2CCCO2)C2CCC(C)CC2)n1C (stereo not drawn) [CBK305548],110.386
4,O=C(O)c1ccc2c(c1)C(=O)N(c1nc(-c3cccnc3)n[nH]1)C2=O [CBK268284],98.1935
5,N=c1c2c3c(sc2ncn1CCCN1CCOCC1)CCCC3 [CBK268323],73.4236
6,COc1cncc(-c2cc(Nc3ccc(O)cc3C)ncn2)c1 [CBK091061],78.9534
7,O=C(c1cc(-c2ccccc2)n[nH]c1=O)N1CCc2ccccc2C1 [CBK291216],105.187
8,Cn1ccnc1CN1CCC2(CC1)CC(C(=O)O)N(C(=O)C1CC1)C2 (stereo not drawn) [CBK306986],92.1553
9,Cc1noc2nc(-c3ccccc3F)cc(C(=O)N3CCCC3c3nnc4ccccn34)c12 (stereo not drawn) [CBK296756],92.4756
10,CCCc1cc(C(=O)N2CCNCC2C(=O)N2CCN(C)CC2)ccn1 (stereo not drawn) [CBK307619],63.4533
11,COc1ccc(C(=O)c2c(N)c(C(=O)Nc3ccccc3)c3ccccn23)cc1 [CBK300509],79.8159
12,O=C(/C=C/c1ccc(Cl)cc1Cl)NCCNc1c(Cl)cccc1[N+](=O)[O-] [CBK264295],74.9332
13,COc1ccc(C(=O)NNC(=O)/C=C/c2ccc(C(C)C)cc2)cc1 [CBK261697],33.0282
14,Cc1cc(NC(=O)c2ccc(S(=O)(=O)N(C)C)cc2)nc2c1c(=O)oc1ccccc12 [CBK291135],117.356
15,CCc1cc(C(=O)N2CCCC(c3cc4ccccc4cn3)C2)on1 (stereo not drawn) [CBK285156],108.399
16,N#Cc1ccc(NC(=O)c2ccc(-n3cnnc3)cc2Cl)cc1 [CBK269758],87.274
17,Cc1cc(S)n2nc(C)c(-c3ccccc3)c2n1 [CBK288423],106.125
18,NS(=O)(=O)c1ccc(Nc2c(C(=O)O)cc([N+](=O)[O-])cc2[N+](=O)[O-])cc1 [CBK261319],94.3825
19,O=S(=O)(Nc1cccc(-c2cnco2)c1)c1ccc(Cl)c(Cl)c1 [CBK067117],91.8111
20,Cn1c(SCC(=O)N2CCN(c3ccccc3)CC2)nnc1-c1cccc([N+](=O)[O-])c1 [CBK265209],126.219
21,CN(CC(=O)N1CCN(Cc2ccc3c(c2)OCO3)CC1)S(=O)(=O)c1ccc2ccccc2c1 [CBK267016],78.3466
22,COC(=O)c1c(NC(=S)Nc2ccc(CC(=O)O)cc2)sc(C)c1C [CBK267111],127.985
23,CCCC(=O)NCCn1nc(-c2ccccc2F)cc1CN(C)C [CBK282000],95.4152
24,COc1cccc(Nc2nnc(-c3cc4cc(OC)ccc4oc3=O)s2)c1 [CBK264432],93.2145
25,CCO/C(C)=C/c1sc2ccc3ccccc3c2[n+]1CCCS(=O)(=O)[O-] [CBK260948],84.6991
26,Nc1nc(-c2ccccc2I)n[nH]1 [CBK027413],93.4859

row,SMILES,% of control remaining
1,c1ccc(CCCN2CCN(Cc3ccccn3)CC2)cc1 [CBK263461G],103.32
2,O=C(NCCSCc1ccco1)Nc1cccc(Cl)c1 [CBK268277],87.7399
3,Cc1cc(/C=N\NC(=O)c2cc3ccccc3cc2O)c(C)n1-c1ccccc1 [CBK261801],96.5182
4,CCOC(=O)CCNC(=O)/C=C/c1ccc(C(C)C)cc1 [CBK149643],100.993
5,COc1ccc(C(=O)CN2CCC3(CC2)CC(=O)c2cc(Br)ccc2O3)cc1 [CBK162265],60.355
6,O=C(NCc1ccc(OC2CCNCC2)cc1)c1cccs1 [CBK036353T],107.268
7,CN(/N=C/c1cc(Br)cs1)c1ccc(Cl)nn1 [CBK028729],54.9504
8,Cn1cc(CN2CCCN(C(=O)c3ccc4ccccc4n3)CC2)cn1 [CBK305369],75.9954
9,Cc1cnc2[nH]c(C(F)(F)F)c(CN3CCN(C)CC3)c2c1 [CBK284765],104.367
10,COc1cccc(C(NC(=O)c2cc(CN3CCOCC3)c(C)o2)c2ccccc2)c1 (stereo not drawn) [CBK286279],105.449
11,Cc1ccc(S(=O)(=O)N(C)CCCC(=O)n2cnc3ccccc32)cc1 [CBK264457],105.437
12,Cc1cc(CNC(=O)C2=CC(=O)CC(C)(C)O2)no1 [CBK153281],63.24
13,CCN(CC(=O)NCc1cccs1)C(=O)CN1CCCC1c1ccc(C)cc1 (stereo not drawn) [CBK297761],84.35
14,CCCc1n[nH]c(C2CCCC2)c1C(=O)OCC [CBK115727],70.7407
15,CCCC(=O)Nc1ccc(OCc2ncc(C(C)(C)C)o2)c(C(C)=O)c1 [CBK305218],101.71
16,O=C(NCc1ccc(-c2csnn2)cc1)c1ccc(Oc2ccccc2)cc1 [CBK149300],91.1245
17,Nc1nonc1-n1nnc(C(=O)N/N=C2\CCc3ccccc32)c1-c1ccccc1 [CBK261988],101.405
18,Cc1cc(/C=N/O)c(C)c(COCc2cc(C)cc(/C=N/O)c2C)c1 [CBK261770],94.3122
19,Cc1nc2ccccc2c(SCCC(=O)O)c1Cc1ccccc1 [CBK144942T],92.241
20,COc1cc2c(cc1OC)CN(C(=O)N(CCN)CCC(C)c1ccccc1)CC2 (stereo not drawn) [CBK000612C],17.7758
21,COc1ccc(S(=O)(=O)Nc2nccnc2-c2ccc3[nH]ccc3c2)cc1 [CBK050805],96.4736
22,CCCOc1ncccc1O [CBK001459],102.702
23,Cc1nn(CC(=O)N(C)Cc2cnn(C)c2)c(=O)c2ccccc12 [CBK305701],62.5373
24,CCCn1cnc2cc(NC(=O)Cn3cccc(C(=O)NC4CCCCC4)c3=O)ccc21 [CBK286075],94.589
25,Cc1c(C(=O)N2CCC(N3CCSCC3)CC2)[nH]c2c(F)cccc12 [CBK307065],63.0591
